In the supplement of paper PMC10126150:
Values marked as one replicate rest on one cluster of the flow cell; about a third of the high ones do not repeat.

System: ATP
Experiment: switch fluorescence ratio, 500 uM ATP over buffer (Cy3 cluster intensity, sum of 5 cycles each) (fold (ratio)); higher = stronger signal-on switching upon ATP binding; sequences stand for … in TCGTCGGCAGCGTCAGATGTGTATAAGAGACAGTTTTTTTTTTTTTTTTTTTTTTTTT…TC
Conditions: aptamer strand: ATP DNA aptamer (quencher-CACCTGGGGGAGTATTGCGGAGGAAGG + anchor), 100 nM annealed; ATP concentration: 500 uM; one replicate
Procedure, shortened: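 For every switch-domain sequence, the fluorescence ratio is the mean of per-cluster values, each being summed target-cycle Cy3 intensity over summed buffer-cycle Cy3 intensity. Clusters outside 100-1000 RFU were excluded. On a modified Illumina MiSeq flow-cell, the Cy3-labelled switching-strand clusters were annealed to 100 nM quencher-labelled ATP aptamer, imaged in selection buffer and then after 15 min with 500 uM ATP at 22 °C. Five such cycles were run, with NaOH stripping and re-annealing between them.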
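Note: ATP exposure 15 min at 22 °C before imaging.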

Sequence | switch fluorescence ratio
AGGGCACTGT | 0.973
AACCCGCCGG | 1.02
GGGGTACAC | 0.971
AAACTAATGG | 0.977
GCGATTGTGC | 0.985
GAGGTAAAGG | 0.99
AGCTTATAAC | 1.13
GCGCGTAGAC | 1.13
GCAGGCCTGC | 1.07
GATGAGACAC | 0.938
TGCCGGGAG | 1.01
GATGGAATCC | 1.05
GGGAGTCAGG | 1.01
AGTTGCGGTA | 0.96
GGCGTACAGC | 0.979
ACGACCAATA | 5.61
AGTATCTAAT | 0.994
TCAACTATCG | 1.05
TTGATGAGTT | 0.992
GTTTGACGTA | 0.956
CTACATGCGC | 1.02
TGCATGACTC | 1.76
TTTGGCCTCG | 0.952

Sequence | switch fluorescence ratio
CAATCACTTT | 0.985
CCTAGGAAGT | 0.967
TCAACACTG | 1.01
GTGCTTGTTT | 0.98
GTTACTCGAC | 1.23
CTGTTTGAGG | 1.02
CGGCAATCG | 1.57
TCGATTAGGC | 0.975
TCGTCTCTAT | 0.968
GGGACCTGGG | 0.996
TGTTGGGCC | 0.991
AACCGTAACA | 1.09
CTTTACATGA | 1.06
CTAAAACCAT | 1.1
TGGCGTAGTC | 1.22
CACCAACGT | 1.39
CCGCGGATGT | 1.09
GGACATCCGT | 1.03
ACATCATCGA | 1.03
ATAAAGGCCA | 0.994
AAACGTCTAT | 0.985
AAAATGAACA | 0.999
GGTCTACTGG | 1.01

Sequence | switch fluorescence ratio
GACGCCCCTT | 1.14
CTGGGGCAAC | 1.2
GGGTGCGTAT | 0.948
CGGGTTAT | 1.02
GCAGGTAATG | 0.974
AATTACTCAT | 1.01
TCGCTCGTAT | 1
CTTGGGGAAG | 1.02
TTCGGTTTCT | 0.993
TGGTGCGCGA | 1.02
AGGGCACGGC | 1.04
ACGAGGACGC | 1.1
CACGCCGTTC | 1.05
CAAGAAAACG | 0.984
CTCTGAGACG | 1
GGTAAGGCCA | 1.02
GCTAGAAAGT | 0.974
GGTCATTTCT | 0.961
CGGTAGGTAC | 1.07
ATAATTGTAT | 1.13
AAGGACCGTC | 1.05
CAGCGTTGTG | 1.01
GTAACGGTTG | 0.98

Sequence | switch fluorescence ratio
ACTAAAAACT | 0.99
ATACGGAAAG | 1
AAGCAGCAGG | 1.01
CAGTCTCACA | 1.04
ATGACTAGAC | 1.1
GGCTTAGAAA | 1
GTGTACTCTT | 1.07
AGGTACAAGG | 1.02
ATTCCAGTAT | 1.03
TCTGACAGAT | 1.04
TCTATTACC | 0.994
ACGCACCTGG | 1.68
GTAGTACCCG | 0.937
GTGTTGTCAT | 0.961
CAAGAGCCCG | 1.04
TTAGTCTTCA | 0.979
CTGCCGACGG | 1.18
GCAATGCATT | 1
CGAGGGCGGA | 1.02
GGTAGTCATA | 1.03
ACAAGGTTCA | 1.02
GTCAAGATAA | 0.979
TTGACGGATA | 0.985

Sequence | switch fluorescence ratio
GACATGGCGC | 0.976
TACGCCCTAG | 1.03
CAAGCAGTTT | 1.04
CCGTCAGTAT | 3.37
AATCATCTTC | 0.993
CTGTTGGCTA | 1.02
CCAGCTTTCA | 1.01
ATAGGCTTAC | 1.23
CAAGGTGGCG | 0.958
TGAGGTGGCC | 1.02
AACTTACCCG | 1.48
CGATTATGAA | 0.98
GATATCGGCG | 1.02
ACACGTGCGC | 1.04
GGCGCAAGAA | 1.02
TACACAGCG | 1.06
CCAGCGGCGC | 0.97
TACCTATCAC | 1.48
TACGTTGTAT | 0.993
AGATATTC | 1.04
TCTCATCCAT | 1.02
CACAGAAAAA | 0.991
GTTACTAAAA | 0.987

Sequence | switch fluorescence ratio
GCATCTGCTC | 1.03
AGGTGTGTTC | 1.01
ATAGCTTGTT | 0.985
TTTGGATAAT | 0.952
CACGGCACCT | 1.69
ACGCCTCCGT | 1.92
TATTATTGAG | 0.961
TGAAGTAAAT | 0.995
GACGGTACAG | 0.965
GCGAATGGTA | 0.996
TGAGTCTTGA | 1.03
GGGTCGAAGG | 0.912
TGTCAAAGAA | 1.03
GAGCTGGCCC | 0.955
AAAGTCTTAT | 1
ATTGAGTTA | 1.03
GGCCAGTAAG | 1.04
GCTACGAAGC | 1.05
GCTGACCCGA | 1.13
CACTCGTACT | 1.19
TACGTTTCG | 0.998
GTTCGTAGCG | 0.942
CATGGCGCAG | 1

Sequence | switch fluorescence ratio
GTAGTATGGA | 0.958
CCGTGAATTA | 1.13
TTTCCTTCGG | 1.11
CGGTTCGTTT | 0.969
CGCGGCATTG | 1.05
GGTGTTCGCG | 1.03
ATGTTCGTAC | 0.968
ACGTCCGAT | 1.05
TGCTCTTAAT | 1.01
GGTTCTGTAA | 1.02
TGTTATATGA | 0.996
ATAATTTGGA | 1.01
GATTGAGTAA | 1.04
GGAAGACGTT | 1.02
GATTATCTGC | 1.02
ACGGCCACT | 1.25
TGTTTTGTTA | 0.992
CCGGTCCGGT | 1.03
AGTAGGTCCA | 1.02
